We go through 104 sequences from the supplement of paper PMC12067230.

The data scatter; read single values as rough.
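Note: [psi-pin-] Saccharomyces cerevisiae expressing SupN fusions, induced by 100 µM Cu2SO4, selected 7 d at 30 °C without adenine and uracil, scored by deep sequencing of output versus input.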

The first series is described as follows: amyloid nucleation score relative to library mode (yeast Sup35 reporter selection) (log enrichment difference); higher = more amyloid nucleation; sequences are the first 22 residues of the Bri2 peptide extended by up to 12 random residues. Particulars: random library (experiment): 1;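 active = nucleation score significantly above 0 at FDR 0.05; inactive = not significantly above 0 or absent from output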.
In turn, EASNCFAIRHFENKFAVETLICFRIRMGRLKMVT showed an amyloid nucleation score of 0.165.
Take EASNCFAIRHFENKFAVETLICFRLCLGVSRMAK: the amyloid nucleation score entry is “inactive”.
Still for that read-out and setting: next, EASNCFAIRHFENKFAVETLICFRLFRDRQQLLT: “inactive”; EASNCFAIRHFENKFAVETLICFRLLGIPMVVFS: “inactive”.
Consider EASNCFAIRHFENKFAVETLICFRLYAYVLEYTL, for which the amyloid nucleation score entry was “inactive”.
The same measure, in the same setting: next, EASNCFAIRHFENKFAVETLICFRMVLDRFNPHV: “inactive”; EASNCFAIRHFENKFAVETLICFRMWYGSSNIG: “inactive”.
Still for that read-out and setting: under EASNCFAIRHFENKFAVETLICFRNVVCNDGWHL stands 0.498; under EASNCFAIRHFENKFAVETLICFRRMMVEDLLRR, -0.129.
Same read-out and setting: next, EASNCFAIRHFENKFAVETLICFRRSTKLTRLRR: 1.29.
As for EASNCFAIRHFENKFAVETLICFRSRM, the amyloid nucleation score result is “inactive”.
Consider EASNCFAIRHFENKFAVETLICFRTVSVVVRWRW, for which the amyloid nucleation score entry is “inactive”.
Still for that read-out and setting: next, EASNCFAIRHFENKFAVETLICFRVFGLH: “inactive”; EASNCFAIRHFENKFAVETLICFRVLMRRLVVFC: “inactive”; EASNCFAIRHFENKFAVETLICFRVTSNVGRKGR: -0.399.
Same read-out and setting: under EASNCFAIRHFENKFAVETLICFRYCICGYDWMS stands “inactive”; under EASNCFAIRHFENKFAVETLICFRYDPSDRSCGC, 3.25.
Same read-out and setting: next, EASNCFAIRHFENKFAVETLICFRYSFPIVCFVS: 4.27; EASNCFAIRHFENKFAVETLICFS: “inactive”; EASNCFAIRHFENKFAVETLICFSALSSRNRLRE: 2.47.
As for EASNCFAIRHFENKFAVETLICFSANRVGLSPCR, the amyloid nucleation score entry was “inactive”.
The same measure, in the same setting: under EASNCFAIRHFENKFAVETLICFSCHWGT stands 8.78.
The same measure, in the same setting: next, EASNCFAIRHFENKFAVETLICFSDNPCERQRMF: 2.74; EASNCFAIRHFENKFAVETLICFSDPNAMLMFVE: “inactive”; EASNCFAIRHFENKFAVETLICFSEFTRDRLAFP: 4.47.
Same read-out and setting: under EASNCFAIRHFENKFAVETLICFSELLPYFWS stands -0.324; under EASNCFAIRHFENKFAVETLICFSFVTVARRTRP, 5.6; under EASNCFAIRHFENKFAVETLICFSGAPSVCRRPG, 4.12.
With EASNCFAIRHFENKFAVETLICFSGGSLVSASVR, the amyloid nucleation score came to 0.664.
Same read-out and setting: under EASNCFAIRHFENKFAVETLICFSGPMRELRHEA stands “inactive”; under EASNCFAIRHFENKFAVETLICFSGWRLVLVRCG, 1.79.
EASNCFAIRHFENKFAVETLICFSHSIRHMESAV showed an amyloid nucleation score of 1.59.
In the case of EASNCFAIRHFENKFAVETLICFSIITHRSML, the amyloid nucleation score was determined as 5.27.
The same measure, in the same setting: next, EASNCFAIRHFENKFAVETLICFSILREGRASRR: 6.29.
On the same count and under the same terms, under EASNCFAIRHFENKFAVETLICFSLGWEAPPQWR stands 7.04; under EASNCFAIRHFENKFAVETLICFSLICYWWFGSR, 5.16.
The same measure, in the same setting: next, EASNCFAIRHFENKFAVETLICFSLILYVLKVV: “inactive”; EASNCFAIRHFENKFAVETLICFSLYVMNATARN: 2.15; EASNCFAIRHFENKFAVETLICFSMRTRSGVGCS: 4.4.
EASNCFAIRHFENKFAVETLICFSMVVRSDWTGT showed an amyloid nucleation score of 4.25.
Still for that read-out and setting: next, EASNCFAIRHFENKFAVETLICFSNGMRVLARRQ: -0.534; EASNCFAIRHFENKFAVETLICFSPIDLTRALCW: 4.89.
Same read-out and setting: next, EASNCFAIRHFENKFAVETLICFSQH: 4.9.
The same measure, in the same setting: under EASNCFAIRHFENKFAVETLICFSSVQTSVRVPS stands 3.3.
On to EASNCFAIRHFENKFAVETLICFSTRMKWRFK, for which the amyloid nucleation score entry is “inactive”.
Same read-out and setting: next, EASNCFAIRHFENKFAVETLICFSVMILSEYVVV: “inactive”.

Staying with this series, now noted: random library (experiment): 2.
For EASNCFAIRHFENKFAVETLICFRLYSRR, the amyloid nucleation score is 2.02.
On the same count and under the same terms, under EASNCFAIRHFENKFAVETLICFRMSGNEVAWSS stands -0.0677.
In the case of EASNCFAIRHFENKFAVETLICFRPITFNHTVRT, the amyloid nucleation score was found to be 0.693.
In the case of EASNCFAIRHFENKFAVETLICFRRTQTCGFFDR, the amyloid nucleation score result was “inactive”.
On the same count and under the same terms, under EASNCFAIRHFENKFAVETLICFRSNTSY stands 2.26.
The same measure, in the same setting: under EASNCFAIRHFENKFAVETLICFRTHWQKVLW stands 1.05; under EASNCFAIRHFENKFAVETLICFRTVNTV, “inactive”.
EASNCFAIRHFENKFAVETLICFRVLYLFSYGIC: the amyloid nucleation score entry was “inactive”.
Same read-out and setting: next, EASNCFAIRHFENKFAVETLICFRWKCGF: 2.92; EASNCFAIRHFENKFAVETLICFRYMSYIELRLS: “inactive”; EASNCFAIRHFENKFAVETLICFSA: 5.23.
On the same count and under the same terms, under EASNCFAIRHFENKFAVETLICFSCIDKPSCSKC stands 7.17.
The same measure, in the same setting: under EASNCFAIRHFENKFAVETLICFSCRDR stands 8.
Consider EASNCFAIRHFENKFAVETLICFSEHI, for which the amyloid nucleation score came to 1.89.
EASNCFAIRHFENKFAVETLICFSELGGCSYLFH displayed an amyloid nucleation score of 4.18.
Same read-out and setting: next, EASNCFAIRHFENKFAVETLICFSFITLRCCPDY: 6.29.
As to EASNCFAIRHFENKFAVETLICFSFVS, the amyloid nucleation score is 8.72.
The same measure, in the same setting: next, EASNCFAIRHFENKFAVETLICFSFVSSPDDRFL: 8.14; EASNCFAIRHFENKFAVETLICFSFYYQGAFIGQ: 2.62.
Turning to EASNCFAIRHFENKFAVETLICFSGFMFGYLVYE, the amyloid nucleation score result is “inactive”.
As to EASNCFAIRHFENKFAVETLICFSGRTMNYAV, the amyloid nucleation score result was “inactive”.
The same measure, in the same setting: under EASNCFAIRHFENKFAVETLICFSHMCLYLTGDL stands “inactive”.
On to EASNCFAIRHFENKFAVETLICFSIFTQQGVLTW, for which the amyloid nucleation score is 3.9.
In turn, EASNCFAIRHFENKFAVETLICFSISSSPLWFYF yielded an amyloid nucleation score of 6.43.
The same measure, in the same setting: under EASNCFAIRHFENKFAVETLICFSLSL stands 8.73; under EASNCFAIRHFENKFAVETLICFSMCVSACNGLR, 2.22; under EASNCFAIRHFENKFAVETLICFSMDANKREKIC, “inactive”.
Same read-out and setting: under EASNCFAIRHFENKFAVETLICFSMLCVNSFVCV stands 2.61; under EASNCFAIRHFENKFAVETLICFSMVQDFKVLLR, “inactive”; under EASNCFAIRHFENKFAVETLICFSNEWKSYALKG, “inactive”.
For EASNCFAIRHFENKFAVETLICFSNGCEPASSFW, the amyloid nucleation score stood at 6.02.
Same read-out and setting: under EASNCFAIRHFENKFAVETLICFSRCDGAYLI stands “inactive”.
As for EASNCFAIRHFENKFAVETLICFSRFILCFNSSL, the amyloid nucleation score entry is “inactive”.
On the same count and under the same terms, under EASNCFAIRHFENKFAVETLICFSRIVI stands “inactive”; under EASNCFAIRHFENKFAVETLICFSRTSIIVLC, “inactive”.
Sequence EASNCFAIRHFENKFAVETLICFSSNLIT gave an amyloid nucleation score of 4.9.
For EASNCFAIRHFENKFAVETLICFSTMRLCVLRVC, the amyloid nucleation score entry is “inactive”.
EASNCFAIRHFENKFAVETLICFSVCKLVAFNHF yielded an amyloid nucleation score of 3.2.

Staying with this series, now noted: random library (experiment): 3.
For the sequence EASNCFAIRHFENKFAVETLICFRKILDLYPLVS, the amyloid nucleation score entry is “inactive”.
Same read-out and setting: under EASNCFAIRHFENKFAVETLICFRLSSYLDDPAN stands “inactive”; under EASNCFAIRHFENKFAVETLICFRMLAAF, “inactive”.
In the case of EASNCFAIRHFENKFAVETLICFRMLNPLSEISL, the amyloid nucleation score entry was “inactive”.
Same read-out and setting: next, EASNCFAIRHFENKFAVETLICFRPCRGGHDCLD: 3.35; EASNCFAIRHFENKFAVETLICFRPVVDQPDECG: “inactive”; EASNCFAIRHFENKFAVETLICFRRLKKLSCEAL: “inactive”.
The same measure, in the same setting: next, EASNCFAIRHFENKFAVETLICFRSMNSMLWFGC: “inactive”; EASNCFAIRHFENKFAVETLICFRTA: 2.25.
Still for that read-out and setting: under EASNCFAIRHFENKFAVETLICFRVNTALVSCYF stands “inactive”; under EASNCFAIRHFENKFAVETLICFRVYRLVSCALW, “inactive”.
The sequence EASNCFAIRHFENKFAVETLICFRYPDRY yielded an amyloid nucleation score of 4.06.
Consider EASNCFAIRHFENKFAVETLICFSAIY, for which the amyloid nucleation score came to 7.41.
The same measure, in the same setting: next, EASNCFAIRHFENKFAVETLICFSCLGNAMSVTG: 8.11; EASNCFAIRHFENKFAVETLICFSDASGGVRRGS: 4.06.
The same measure, in the same setting: under EASNCFAIRHFENKFAVETLICFSDTLWIAETCL stands “inactive”; under EASNCFAIRHFENKFAVETLICFSEW, 5.27; under EASNCFAIRHFENKFAVETLICFSIYKTAIFIMN, 5.88.
The same measure, in the same setting: under EASNCFAIRHFENKFAVETLICFSNTWPCEARYR stands 2.47.
In the case of EASNCFAIRHFENKFAVETLICFSRSYCR, the amyloid nucleation score result is “inactive”.
